Assay results: PMC12136788
This is one part of the list.

B1: chr9:99150529:99150630:+|3pUTR|ENSG00000106799|msi1|FALSE|unique (ssRNA)
RNA: GGGAGUUCUACAGUCCGACGAUCCAUUUGUUAUGUAUGUAGGAGUAAACGUUCGGUGGAUCCUCUGUCUUUGUAACUGAGGUUAGAGCUAGUGUGGUUUUGAGGUCUCACUACACUUUGAGGAAGGCAGCUUUUAAUUCAGUGCAACAGAGGAUUGAGCAUCA
B2: chr1:156672197:156672316:-|CDS|ENSG00000132688|unk|FALSE|bound_elsewhere (ssRNA)
RNA: GGGAGUUCUACAGUCCGACGAUCGACAUUGCAAUCCCUGCAAAAGGAGAAUCAAGAACUAAUGAAAUCUCUUGAAGGUAAUCUAGAGACAUUUUUAUUUCCAGGAACGGAAAAUCAAGAAUUAGUAAGUUCUCUGCAAGAGAACAACAGAGGAUUGAGCAUCA
B3: chr12:120700859:120700960:+|3pUTR|ENSG00000110917|msi1|total|mutant (ssRNA)
RNA: GGGAGUUCUACAGUCCGACGAUCUCUUUGCAUCUGUGUGGCUUGCUUCCAGUCUGGCCUGUCCUUUCCAGCUGCCUUUUGUCCCGCCUGCUAUGGGGGGCCAGAUUAUCUUGAUAAGAGCAGGUGAUUUGGGGACCCGCUGGGCAACAGAGGAUUGAGCAUCA
B4: chr19:34469546:34469571:+|3pUTR|ENSG00000126261|msi1_unk|total|mutant (ssRNA)
RNA: GGGAGUUCUACAGUCCGACGAUCGUUGCCUUUUUAAUGUAAAUACCCGCCGGUAUCAUUAACCGUUUCAAAAUAUUGUGGUUCCGUAAAGUUGAUACCUGGUUAUAAAUAUUAUGCCUUUAUUUUUGGCCCGAAGAAGAAUUACAACAGAGGAUUGAGCAUCA
B5: chr19:15878022:15878898:-|three_prime_utr|ENSG00000186115|control|control|control (ssRNA)
RNA: GGGAGUUCUACAGUCCGACGAUCUCUGCAGAGACCCACUCUGACCCCACUAAAAUGACCCCUGAUUCAUCAAAAGUGAAGCCUAGAAUUACCCUAAGACCCUGUUCCACAGUCCUGUAUUCCAUCCUAGAUAUCUACUCAAAACAACAGAGGAUUGAGCAUCA
B6: chr16:85089731:85089832:+|3pUTR|ENSG00000135709|msi1|total|mutant (ssRNA)
RNA: GGGAGUUCUACAGUCCGACGAUCUUGGAAGGUUUCCCUCCGGGGAAUGCCUCCCUGGAAUGUUCCAGAGACGGAACAUUCUCCCGAGACAACAGUCUGUGCUGCAGAUUGGUUGGAUCACAGAAUGUGUGUCUGGGGCAUUAUCAACAGAGGAUUGAGCAUCA
B7: chr7:123692404:123692516:-|CDS|ENSG00000106299|unk|FALSE|unique (ssRNA)
RNA: GGGAGUUCUACAGUCCGACGAUCCCUGCCUUCUGAUGGGGACCAUCAGGUUCCAACUACUGCAGGAAACAAAGCAGCUCUUUUAGAUCAAAUUAGAGAGGGUGCUCAGCUAAAAAAAGUGGAGCAGAACAGUCGGCCAGUGUCCAACAGAGGAUUGAGCAUCA
B8: chr12:21491601:21491717:-|CDS|ENSG00000004700|unk|total|mutant (ssRNA)
RNA: GGGAGUUCUACAGUCCGACGAUCGCUGCCUCCCACCGCUCUAACUGAGGAACUGGAUUCUAUAACCAGUGAGCUACAUGCAGCCGAAAUUCAAAUUCAAGAACUUACGGAAAGGCAACAAGAGCUUAUUCAGAAAAAAAAAGUCAACAGAGGAUUGAGCAUCA
B9: chr22:38483724:38483825:-|3pUTR|ENSG00000100201|msi1|total|mutant (ssRNA)
RNA: GGGAGUUCUACAGUCCGACGAUCACUUAUAAUUCAGGUUCUGCUGUUGGCUUCAGAACAUGAGCAGAAGAAUCGUUUUAUGCCCGUUAUUGCAUUCAUGGUUGAAACUCAACUCCGGGAAAGGGUUCCAAUGUAUUAAGCAAUCAACAGAGGAUUGAGCAUCA
B10: chr17:42842016:42842117:+|3pUTR|ENSG00000131467|msi1|total|mutant (ssRNA)
RNA: GGGAGUUCUACAGUCCGACGAUCUUACUGUUUCUUUCCUCUGUGGGGCAUUGGAUCCUCCCACAGUUGCCCUGGUGAUGACUCCGGGCUUCCCAUCUGUGUACAUCCCACUUUGAAUCUUGAUCGUGACAAGAAAUACCUCCGCAACAGAGGAUUGAGCAUCA
B11: chr14:73931500:73934255:-|three_prime_utr|ENSG00000156050|control|control|control (ssRNA)
RNA: GGGAGUUCUACAGUCCGACGAUCAGCUAACUUGGGUUUGAGUCAAGGCAGGGAAAACUUGGGUUUUGAGUCAUGGCUACUGUUAGAGGAUGGACAAAUGAAGAGUAGCAGAUUAACAGGCCAGGCGCAGUGGCUCACGCCUGUCAACAGAGGAUUGAGCAUCA
B12: chr9:128061232:128063427:-|three_prime_utr|ENSG00000171169|control|control|control (ssRNA)
RNA: GGGAGUUCUACAGUCCGACGAUCCCAUGAUGGGAUGAAAACUCCAUGGACUUGUAAGUGGGUCCUGUGAUUGGCCUUGGCCUUAGACCGGCCACGUGCACAGCUCCCUCUUUAAUAAACGCUUAGGGGUUGCACUGUUUUUGACAACAGAGGAUUGAGCAUCA
B13: chr8:37861146:37861251:-|3pUTR|ENSG00000156675|unk|total|mutant (ssRNA)
RNA: GGGAGUUCUACAGUCCGACGAUCCUGUGCAGAGCAAGAAGAUGAUACUUAUUUUUGAAUUUGUAUUUUUAAAACCCGAUUUACCGACUUUUUUUUUUUUUAACCCGGGCACUUGCUUCCUUCUCCGCUAAAAGCACCAGCUGACAACAGAGGAUUGAGCAUCA
B14: ENSG00000124766:be:win_2601|3pUTR|ENSG00000124766|bound_else_gene|NA|bound_elsewhere_windowed (ssRNA)
RNA: GGGAGUUCUACAGUCCGACGAUCAGGAUAAUAUAAAAAGCAGAUAGAUGGCGCUAUGUUUGAUUCCUACAACGAAAUUAUCACCAGCUUUUUUUCAUUCUUAACUCUUUAAAGGAUUCAAACGCAACUCAAAUCUGUGCUGGACAACAGAGGAUUGAGCAUCA
B15: ENSG00000113083:stop:overlap|stop_codon|ENSG00000113083|stop_codon|NA|stop_codon (ssRNA)
RNA: GGGAGUUCUACAGUCCGACGAUCGUGACAUUCGCUACACAGGACAUCAUGCGUAUGCCUCAGGCUGCACAAUUUCACCGUAUUAGAAGGCAAAGCAAAACUCCCAAUGGAUAAAUCAGUGCCUGGUGUUCUGAAGUGGGAAAACAACAGAGGAUUGAGCAUCA
B16: chr22:21445082:21445183:+|CDS|ENSG00000169635|msi1|total|mutant (ssRNA)
RNA: GGGAGUUCUACAGUCCGACGAUCCCUGUGUGACGUCAUCAUCAUGGUGGAGAACUCCAUCUUCCGGGCCCACAAGAACGUCCCCGCCGCCAGCAGCAUCUAUUUCAAGUCCCUGGUCCUGCACGACAACCUCAUCAACCUGGACAACAGAGGAUUGAGCAUCA
B17: ENSG00000124766:be:win_101|CDS|ENSG00000124766|bound_else_gene|NA|bound_elsewhere_windowed (ssRNA)
RNA: GGGAGUUCUACAGUCCGACGAUCCCACGCCCGGCUCCACCGCCUCCACGGGCGGCAAGGCCGACGACCCGAGCUGGUGCAAGACCCCGAGUGGGCACAUCAAGCGACCCAUGAACGCCUUCAUGGUGUGGUCGCAGAUCGAGCCAACAGAGGAUUGAGCAUCA
B18: ENSG00000136451:be:win_2951|3pUTR|ENSG00000136451|bound_else_gene|NA|bound_elsewhere_windowed (ssRNA)
RNA: GGGAGUUCUACAGUCCGACGAUCAAAAUUAACUAAACCAAGAUGCUGUGAUUUUUUAAGUUGCAAUAUGUUUUUGGUUUUUUUCAUUUUUUAAUCAUUGCAGUUAAGAGAAAUGGAAAUUAGUUGUGUUAAUCUUGCAGAAUGCAACAGAGGAUUGAGCAUCA
B19: chrX:142202868:142203987:-|CDS|ENSG00000046774|control|control|control (ssRNA)
RNA: GGGAGUUCUACAGUCCGACGAUCUCAGAAAGCAUCAAGAAGAAAGUACUAGAGUUUUUAGCCAAGCUGAACAACACUGUUCCUAGUUCCUUUCCAUCCUGGUACAAGGAUGCUUUGAAAGAUGUGGAAGAGAGAGUCCAGGCCCAACAGAGGAUUGAGCAUCA
B20: chr7:6409910:6410025:-|CDS|ENSG00000164535|unk|FALSE|unique (ssRNA)
RNA: GGGAGUUCUACAGUCCGACGAUCCUCUGCUGCUCACUAUAGCGCCAAGUGGUCACACGAAGCGGAAUUCAGCAAAAUACUCAUAGGUCCGAAGAUGCUCACCGACCACAUGCCAGACAUCCUGAUGCGGGCCUUGGACAGCGUCAACAGAGGAUUGAGCAUCA
B21: ENSG00000070961:be:win_6401|3pUTR|ENSG00000070961|bound_else_gene|NA|bound_elsewhere_windowed (ssRNA)
RNA: GGGAGUUCUACAGUCCGACGAUCCUGGCUUCAUUUCUGUGAAAUUGCUCUUUGAAAAUUUCUUUUUACACGUGUAAGCCAACUGAGAUACCGUGAUGGUGUUGAUUUCUUUCAAUGAUGCUUACCAUCUAUUUUAGCCACUGACAACAGAGGAUUGAGCAUCA
B22: chr8:63210610:63210711:+|3pUTR|ENSG00000185728|msi1|total|mutant (ssRNA)
RNA: GGGAGUUCUACAGUCCGACGAUCCAUGAAGUAAAAAUUUAUUACUCCCGGUAUUCACCCGCUAAAUAAACACCGUUCUUGUUCCGCAAGCAUAUGUUGUUCCUCAGCUCUUUUCUCCAGCUUUUGCAGUGUCCUGGCAUCCUUCAACAGAGGAUUGAGCAUCA

target: T1, UNK ZnF1-6 (called full-length) (human, UniProt Q9C0B0 30-357); assay: nsRBNS (natural sequence RNA bind-n-seq); RBNS binding buffer (assumed for nsRBNS): 25 mM Tris pH 7.5, 150 mM KCl, 3 mM MgCl2, 0.01% Triton X-100, 500 ug/ml BSA, 20 U/ml SUPERase-In, 4 C; UNK is unkempt and MSI1 is Musashi-1; names of the RNAs are library labels; protein concentration not given here; high values mean tight binding
T1 sequence: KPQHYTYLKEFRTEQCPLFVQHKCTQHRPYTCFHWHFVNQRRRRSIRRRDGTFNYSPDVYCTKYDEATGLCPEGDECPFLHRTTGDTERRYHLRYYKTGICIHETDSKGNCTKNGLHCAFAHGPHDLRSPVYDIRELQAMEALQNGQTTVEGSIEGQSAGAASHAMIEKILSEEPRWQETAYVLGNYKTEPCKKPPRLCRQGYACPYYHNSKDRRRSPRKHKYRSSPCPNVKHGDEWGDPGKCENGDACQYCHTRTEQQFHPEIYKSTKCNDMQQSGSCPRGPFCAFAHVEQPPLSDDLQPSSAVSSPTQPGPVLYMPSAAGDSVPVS

Row | Binder | binding signal [enrichment R]
1 | B1 | 0.659
2 | B2 | 0.389
3 | B3 | 0.675
4 | B4 | 1.04
5 | B5 | 1
6 | B6 | 0.364
7 | B7 | 0.767
8 | B8 | 0.478
9 | B9 | 0.245
10 | B10 | 0.688
11 | B11 | 0.866
12 | B12 | 0.687
13 | B13 | 1.82
14 | B14 | 0.596
15 | B15 | 1.19
16 | B16 | 0.899
17 | B17 | 0.516
18 | B18 | 0.456
19 | B19 | 0.438
20 | B20 | 0.866
21 | B21 | 0.517
22 | B22 | 1.27
